The supplement of paper PMC9446081
About 220 (0.56%) of roughly 39,000 compounds showed activity. The list shows a part of the results.

Test system: Escherichia coli K-12 BW25113
Assay: relative growth (OD600 normalised to plate interquartile mean) (fraction); higher = less growth inhibition, active = 0.2 or less
Details: 50 µM; LB; incubation time: overnight (16-24 h)
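Further: static incubation at 37 °C against the wild-type strain, values averaged over two biological replicates.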

SMILES	relative growth
Cc1noc(C)c1NC(=O)N(C)C[C@@H]1OCCCC[C@H](C)Oc2ccc(NS(=O)(=O)c3ccccc3)cc2C(=O)N([C@@H](C)CO)C[C@H]1C	inactive: 1.01
NC[C@H]1CCN(c2ccc(Oc3ccccc3)cc2)C1	inactive: 0.669
Cc1noc(C)c1S(=O)(=O)N(C)C[C@H]1OCc2cn(nn2)CCCC(=O)N([C@@H](C)CO)C[C@@H]1C	inactive: 1
C[C@H](CO)N1C[C@H](C)[C@@H](CN(C)Cc2ccc(C(F)(F)F)cc2)OCCCC[C@H](C)Oc2ccc(NS(=O)(=O)c3cn(C)cn3)cc2C1=O	inactive: 0.997
O=C(Nc1ccccc1)c1ccccc1O	inactive: 0.534
COc1ccc(S(=O)(=O)Nc2ccc3c(c2)OC[C@@H](C)N(C)C[C@@H](C)[C@H](OC)CN(C)C3=O)cc1	inactive: 1.03
C[C@H](CO)N1C[C@H](C)[C@H](CN(C)C(=O)C2CCOCC2)Oc2ncc(C#CC3(O)CCCC3)cc2C1=O	inactive: 0.996
C[C@@H]1CCCCO[C@@H](CN(C)C(=O)Cc2ccccc2)[C@H](C)CN([C@H](C)CO)C(=O)c2cc(NC(=O)C3CCCCC3)ccc2O1	inactive: 0.99
COc1ccc(C#Cc2cnc3c(c2)C(=O)N([C@@H](C)CO)C[C@H](C)[C@@H](CN(C)C(=O)CC2CC2)O3)cc1	inactive: 1.02
CC(C)c1nc(/N=C/N(C)C)nc(=O)n1C	inactive: 1
C[C@H]1CN([C@@H](C)CO)C(=O)c2c(c3ccccc3n2C)-c2ccccc2CO[C@H]1CN(C)C(=O)Nc1ccccc1C(F)(F)F	inactive: 0.997
C[C@@H]1CN([C@H](C)CO)C(=O)c2cccc(NS(=O)(=O)c3cn(C)cn3)c2O[C@H]1CN(C)C(=O)Nc1ccc2c(c1)OCO2	inactive: 0.986
CC(C)NC(=O)N(C)C[C@H]1Oc2ccc(NS(=O)(=O)c3cccs3)cc2C(=O)N([C@@H](C)CO)C[C@@H]1C	inactive: 0.99
COc1ccc(NC(=O)N(C)C[C@@H]2Oc3ccc(NC(=O)C4CC4)cc3C(=O)N([C@@H](C)CO)C[C@@H]2C)cc1	inactive: 0.999
NCC[C@@H]1CC[C@@H](NC(=O)C2CCC2)[C@H](CO)O1	inactive: 1
C[C@@H]1CN([C@H](C)CO)S(=O)(=O)c2ccc(C#CC3CC3)cc2O[C@@H]1CN(C)Cc1ccccc1F	inactive: 0.92
CCS(=O)(=O)Nc1ccc2c(c1)C(=O)N(C)[C@H]1CC[C@@H](CC(=O)NCc3ccccc3F)O[C@H]1CO2	inactive: 1
C[C@H](CO)N1C[C@H](C)[C@H](CN(C)S(=O)(=O)c2ccc(F)cc2)OCCCC[C@H](C)Oc2ccc(NC(=O)CCCCCC(=O)Nc3ccccc3N)cc2C1=O	inactive: 0.999
CN1CCN(C(=O)C[C@H]2C[C@@H]3c4cc(NC(=O)c5ccc6c(c5)OCO6)ccc4O[C@@H]3[C@H](CO)O2)CC1	inactive: 0.987
Cc1noc(C)c1NC(=O)Nc1ccc2c(c1)C(=O)N([C@H](C)CO)C[C@H](C)[C@H](CN(C)C(=O)Nc1cccc3ccccc13)OCCCC[C@H](C)O2	inactive: 0.967
C[C@H]1COC(=O)[C@@H](Cc2ccc(F)cc2)CCC=CC[C@@H](CC(=O)N[C@@H](CO)Cc2ccccc2)C(=O)N1	inactive: 0.986

SMILES	relative growth
COc1ccc(CN(C)C[C@H]2OCCCC[C@@H](C)Oc3ccc(NS(=O)(=O)c4ccc(F)cc4)cc3C(=O)N([C@@H](C)CO)C[C@@H]2C)cc1	inactive: 1.01
C[C@H](CO)N1C[C@H](C)[C@@H](CN(C)CC2CCCCC2)OCCCC[C@H](C)Oc2ccc(NC(=O)NC3CCCCC3)cc2C1=O	inactive: 1.01
COc1ccc(NC(=O)N(C)C[C@@H]2OCCCC[C@@H](C)Oc3ccc(NC(=O)Nc4ccc(F)cc4)cc3C(=O)N([C@H](C)CO)C[C@H]2C)cc1	inactive: 1.03
CN(C)CCCn1ccnc1-c1cnc(N)nc1	inactive: 0.996
O=C(O)CCc1nc2ccccc2[nH]c1=O	inactive: 0.998
CC(C)CC#Cc1ccc2c(c1)O[C@H](CN(C)C(=O)c1ccncc1)[C@@H](C)CN([C@H](C)CO)S2(=O)=O	inactive: 0.993
C[C@H]1CN([C@@H](C)CO)C(=O)Cc2cc(NC(=O)Nc3cccc4ccccc34)ccc2O[C@@H]1CN(C)S(=O)(=O)c1ccc(Cl)cc1	inactive: 1.04
Cc1ccc(S(=O)(=O)Nc2ccc3c(c2)CC(=O)N([C@@H](C)CO)C[C@@H](C)[C@@H](CN(C)Cc2ccc(C(F)(F)F)cc2)O3)cc1	inactive: 1
CCCC#Cc1cnc2c(c1)C(=O)N([C@@H](C)CO)C[C@@H](C)[C@@H](CN(C)S(=O)(=O)c1cn(C)cn1)O2	inactive: 1.01
C[C@@H]1CN([C@@H](C)CO)C(=O)CCCn2cc(nn2)CO[C@@H]1CN(C)C(=O)C1CC1	inactive: 0.968
Cc1noc(C)c1S(=O)(=O)Nc1ccc2c(c1)CC(=O)N([C@H](C)CO)C[C@H](C)[C@@H](CN(C)C(=O)Nc1ccc3c(c1)OCO3)O2	inactive: 1
COc1ccc(NC(=O)Nc2ccc3c(c2)C(=O)N([C@H](C)CO)C[C@H](C)[C@@H](CN(C)C(=O)c2ccccc2)OCCCC[C@H](C)O3)cc1	inactive: 1
C[C@@H]1CCCCO[C@@H](CN(C)C(=O)Nc2ccccc2)[C@H](C)CN([C@@H](C)CO)C(=O)c2cc(NC(=O)Nc3ccc4c(c3)OCO4)ccc2O1	inactive: 0.999
COC1(NC(=O)C2SC(=C(C(N)=O)C(=O)O)S2)C(=O)N2C(C(=O)O)=C(CSc3nnnn3C)CSC21 (configuration not stated)	active: 0.0448
CCO[C@@H]1OC(C(=O)N2CCN(Cc3ccccc3)CC2)=C[C@H](c2ccc(C(F)(F)F)cc2)[C@H]1CCCOC(=O)NCCCCCC(=O)NO	inactive: 0.967
C[C@@H]1CN([C@H](C)CO)C(=O)c2cc(NS(=O)(=O)c3ccc(Cl)cc3)ccc2O[C@@H]1CN(C)S(C)(=O)=O	inactive: 0.977
COc1cccc(C#Cc2ccc3c(c2)O[C@@H](CN(C)C(C)=O)[C@H](C)CN([C@H](C)CO)S3(=O)=O)c1	inactive: 1
CN1C(=O)c2cc(NC(=O)Cc3cccs3)ccc2OC[C@H]2O[C@H](CC(=O)NCc3ccc(-c4ccccc4)cc3)CC[C@@H]21	inactive: 1.02
C[C@@H]1O[C@@H](O[C@@H]2[C@@H](O)[C@H](OCCc3ccc(O)c(O)c3)O[C@H](CO)[C@H]2O)[C@H](O)[C@H](O)[C@H]1O	inactive: 1.02
Cc1noc(C)c1NC(=O)N(C)C[C@@H]1Oc2ccc(NC(=O)NC(C)C)cc2CC(=O)N([C@@H](C)CO)C[C@H]1C	inactive: 1
Cc1cccc(NC(=O)Nc2ccc3c(c2)C(=O)N(C)[C@@H]2CC[C@H](CC(=O)NCc4ccccc4Cl)O[C@H]2CO3)c1	inactive: 1

SMILES	relative growth
CC1(C)CC(Nc2ccc(Nc3ccccc3)cc2)CC(C)(C)N1	inactive: 1.02
Cc1ccc(S(=O)(=O)N(C)C[C@@H]2OCCCC[C@@H](C)Oc3ccc(NC(=O)NC4CCCCC4)cc3C(=O)N([C@H](C)CO)C[C@@H]2C)cc1	inactive: 1
COc1ccc(S(=O)(=O)Nc2ccc3c(c2)C(=O)N([C@@H](C)CO)C[C@@H](C)[C@@H](CN(C)S(C)(=O)=O)O3)cc1	inactive: 1
Cc1noc(C)c1NC(=O)N(C)C[C@H]1OCCCC[C@@H](C)Oc2ccc(NS(=O)(=O)c3ccc(Cl)cc3)cc2C(=O)N([C@@H](C)CO)C[C@@H]1C	inactive: 0.971
C[C@@H]1CN([C@@H](C)CO)C(=O)c2cc(NC(=O)Nc3cccc4ccccc34)ccc2O[C@H]1CN(C)Cc1ccncc1	inactive: 0.998
C[C@@H]1CN([C@H](C)CO)C(=O)c2cc(N(C)C)ccc2O[C@@H](C)CCCCO[C@H]1CN(C)S(C)(=O)=O	inactive: 0.968
C[C@@H]1CN([C@H](C)CO)C(=O)c2cc(Br)cnc2O[C@@H]1CN(C)Cc1ccc2c(c1)OCO2	inactive: 1
COc1ccc(C#Cc2ccc3c(c2)[C@H]2[C@H](CCN2C(=O)Nc2ccc(C(F)(F)F)cc2)[C@H](CO)N3C)cc1	inactive: 1.01
N=C(NO)C(=O)Nc1ccccc1	inactive: 0.997
O=C(C[C@H]1C=C[C@@H](NC(=O)C2CC2)[C@H](CO)O1)NCCCN1CCOCC1	inactive: 0.991
O=S1(=O)C[C@H](NCc2cccnc2)[C@@H](O)C1	inactive: 1
COc1cccc(-c2cnc3c(c2)C(=O)N([C@H](C)CO)C[C@H](C)[C@H](CN(C)S(=O)(=O)c2cccs2)O3)c1	inactive: 1
Cc1noc(C)c1NC(=O)Nc1ccc2c(c1)C(=O)N([C@@H](C)CO)C[C@H](C)[C@@H](CN(C)C(=O)Nc1ccc(F)cc1)OCCCC[C@H](C)O2	inactive: 1.01
C[C@@H]1CCCCO[C@H](CN(C)C(=O)c2ccccc2)[C@@H](C)CN([C@H](C)CO)C(=O)c2cc(NC(=O)C3CCCCC3)ccc2O1	inactive: 0.997
c1ccc(-n2nnnc2CN2CCOCC2)cc1	inactive: 1.04
O=C1CNCCN1C1CCCC1	inactive: 0.973
C[C@@H]1CN([C@@H](C)CO)C(=O)c2cc(C#CC(C)(C)O)cnc2O[C@@H]1CN(C)C(=O)CN(C)C	inactive: 0.998
C[Se]CCC(N)C(=O)O (configuration not stated)	inactive: 1.05
C[C@@H]1CCCCO[C@H](CN(C)Cc2ccc(C(F)(F)F)cc2)[C@H](C)CN([C@H](C)CO)C(=O)c2cc(NC(=O)c3ccccc3)ccc2O1	inactive: 1.04
C[C@@H]1CN([C@@H](C)CO)C(=O)c2cccc(NC(=O)Nc3ccc(C(F)(F)F)cc3)c2O[C@H]1CN(C)C(=O)Nc1ccc2c(c1)OCO2	inactive: 0.931
